Assay results from publication PMC9911399, “Two distinct binding modes provide the RNA-binding protein RbFox with extraordinary sequence specificity”.
Residue numbers refer to the chain shown, from its start. This is one part of the list.

T1: RBFOX1 RRM RbFoxmut (Fox-RRM*) (Homo sapiens, UniProt Q9NWB1 109-208, R118D;E147R;N151S;E152T)
T1 sequence: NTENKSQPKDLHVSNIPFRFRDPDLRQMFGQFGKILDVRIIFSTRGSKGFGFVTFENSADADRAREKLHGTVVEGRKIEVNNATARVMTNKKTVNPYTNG

B1: CGAUAGC (DNA:RNA)
RNA: GGGAGACCGGAAUUCAGAUUGUCCCGAUAGCUUAAAUCCCGUCGUAGCCACCA
DNA 1: CAATCTGAATTCCGGTCTCCC
DNA 2: TGGTGGCTACGACGGGATT
B2: GGUACUC (DNA:RNA)
RNA: B1 RNA with C25G, A27U, U28A, A29C, G30U
DNA 1: CAATCTGAATTCCGGTCTCCC
DNA 2: TGGTGGCTACGACGGGATT
B3: CGUUCAA (DNA:RNA)
RNA: B1 RNA with A27U, A29C, G30A, C31A
DNA 1: CAATCTGAATTCCGGTCTCCC
DNA 2: TGGTGGCTACGACGGGATT
B4: UAGGGAA (DNA:RNA)
RNA: GGGAGACCGGAAUUCAGAUUGUCCUAGGGAAUUAAAUCCCGUCGUAGCCACCA
DNA 1: CAATCTGAATTCCGGTCTCCC
DNA 2: TGGTGGCTACGACGGGATT
B5: CAUUUUU (DNA:RNA)
RNA: B1 RNA with G26A, A27U, A29U, G30U, C31U
DNA 1: CAATCTGAATTCCGGTCTCCC
DNA 2: TGGTGGCTACGACGGGATT
B6: GCUAAAG (DNA:RNA)
RNA: B1 RNA with C25G, G26C, A27U, U28A, G30A, C31G
DNA 1: CAATCTGAATTCCGGTCTCCC
DNA 2: TGGTGGCTACGACGGGATT
B7: UGCCGCU (DNA:RNA)
RNA: B4 RNA with A26G, G27C, G28C, A30C, A31U
DNA 1: CAATCTGAATTCCGGTCTCCC
DNA 2: TGGTGGCTACGACGGGATT
B8: UACCUAU (DNA:RNA)
RNA: B4 RNA with G27C, G28C, G29U, A31U
DNA 1: CAATCTGAATTCCGGTCTCCC
DNA 2: TGGTGGCTACGACGGGATT
B9: GGAUGAG (DNA:RNA)
RNA: B1 RNA with C25G, A29G, G30A, C31G
DNA 1: CAATCTGAATTCCGGTCTCCC
DNA 2: TGGTGGCTACGACGGGATT
B10: GAAAAGU (DNA:RNA)
RNA: B1 RNA with C25G, G26A, U28A, C31U
DNA 1: CAATCTGAATTCCGGTCTCCC
DNA 2: TGGTGGCTACGACGGGATT
B11: CUAGGCC (DNA:RNA)
RNA: B1 RNA with G26U, U28G, A29G, G30C
DNA 1: CAATCTGAATTCCGGTCTCCC
DNA 2: TGGTGGCTACGACGGGATT
B12: CUAAGCG (DNA:RNA)
RNA: B1 RNA with G26U, U28A, A29G, G30C, C31G
DNA 1: CAATCTGAATTCCGGTCTCCC
DNA 2: TGGTGGCTACGACGGGATT
B13: GCCUAUU (DNA:RNA)
RNA: B1 RNA with C25G, G26C, A27C, G30U, C31U
DNA 1: CAATCTGAATTCCGGTCTCCC
DNA 2: TGGTGGCTACGACGGGATT
B14: ACGGCAU (DNA:RNA)
RNA: B4 RNA with U25A, A26C, G29C, A31U
DNA 1: CAATCTGAATTCCGGTCTCCC
DNA 2: TGGTGGCTACGACGGGATT
B15: CUAGCAU (DNA:RNA)
RNA: B1 RNA with G26U, U28G, A29C, G30A, C31U
DNA 1: CAATCTGAATTCCGGTCTCCC
DNA 2: TGGTGGCTACGACGGGATT
B16: UAUCUGC (DNA:RNA)
RNA: B1 RNA with C25U, G26A, A27U, U28C, A29U
DNA 1: CAATCTGAATTCCGGTCTCCC
DNA 2: TGGTGGCTACGACGGGATT
B17: GUUCUAA (DNA:RNA)
RNA: B4 RNA with U25G, A26U, G27U, G28C, G29U
DNA 1: CAATCTGAATTCCGGTCTCCC
DNA 2: TGGTGGCTACGACGGGATT
B18: CUUCCGA (DNA:RNA)
RNA: B1 RNA with G26U, A27U, U28C, A29C, C31A
DNA 1: CAATCTGAATTCCGGTCTCCC
DNA 2: TGGTGGCTACGACGGGATT
B19: UCGCGCA (DNA:RNA)
RNA: B4 RNA with A26C, G28C, A30C
DNA 1: CAATCTGAATTCCGGTCTCCC
DNA 2: TGGTGGCTACGACGGGATT
B20: AUUCUGC (DNA:RNA)
RNA: B1 RNA with C25A, G26U, A27U, U28C, A29U
DNA 1: CAATCTGAATTCCGGTCTCCC
DNA 2: TGGTGGCTACGACGGGATT
B21: GACCUCA (DNA:RNA)
RNA: B4 RNA with U25G, G27C, G28C, G29U, A30C
DNA 1: CAATCTGAATTCCGGTCTCCC
DNA 2: TGGTGGCTACGACGGGATT
B22: GACUUUU (DNA:RNA)
RNA: B1 RNA with C25G, G26A, A27C, A29U, G30U, C31U
DNA 1: CAATCTGAATTCCGGTCTCCC
DNA 2: TGGTGGCTACGACGGGATT
B23: AAGUCUC (DNA:RNA)
RNA: B1 RNA with C25A, G26A, A27G, A29C, G30U
DNA 1: CAATCTGAATTCCGGTCTCCC
DNA 2: TGGTGGCTACGACGGGATT
B24: AGUAUUG (DNA:RNA)
RNA: B1 RNA with C25A, A27U, U28A, A29U, G30U, C31G
DNA 1: CAATCTGAATTCCGGTCTCCC
DNA 2: TGGTGGCTACGACGGGATT
B25: UUGGUAG (DNA:RNA)
RNA: B4 RNA with A26U, G29U, A31G
DNA 1: CAATCTGAATTCCGGTCTCCC
DNA 2: TGGTGGCTACGACGGGATT
B26: UUCGUUU (DNA:RNA)
RNA: B4 RNA with A26U, G27C, G29U, A30U, A31U
DNA 1: CAATCTGAATTCCGGTCTCCC
DNA 2: TGGTGGCTACGACGGGATT
B27: ACACAGA (DNA:RNA)
RNA: B1 RNA with C25A, G26C, U28C, C31A
DNA 1: CAATCTGAATTCCGGTCTCCC
DNA 2: TGGTGGCTACGACGGGATT
B28: AACAGCG (DNA:RNA)
RNA: B4 RNA with U25A, G27C, G28A, A30C, A31G
DNA 1: CAATCTGAATTCCGGTCTCCC
DNA 2: TGGTGGCTACGACGGGATT
B29: GGUCCCU (DNA:RNA)
RNA: B1 RNA with C25G, A27U, U28C, A29C, G30C, C31U
DNA 1: CAATCTGAATTCCGGTCTCCC
DNA 2: TGGTGGCTACGACGGGATT
B30: CUAGUCA (DNA:RNA)
RNA: B1 RNA with G26U, U28G, A29U, G30C, C31A
DNA 1: CAATCTGAATTCCGGTCTCCC
DNA 2: TGGTGGCTACGACGGGATT
B31: AUGACAU (DNA:RNA)
RNA: B4 RNA with U25A, A26U, G28A, G29C, A31U
DNA 1: CAATCTGAATTCCGGTCTCCC
DNA 2: TGGTGGCTACGACGGGATT

These binders were tested against T1, RBFOX1 RRM RbFoxmut (Fox-RRM*) (assay: EMSA; HiTS-Eq, 1 nM pool, 10 min; buffer printed only for the single-RNA assays: 10 mM Tris pH 7.5, 150 mM NaCl, 3.4 mM EDTA, 0.001% NP-40, 30 C). Conditions: tags: His6 N-terminal (pET28a); label: 5' 32P.
How it was run: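 A pool of RNA with 7 randomized nucleotides, 5′-radiolabelled and with DNA-annealed flanks, was equilibrated at 1 nM for 10 min in 50 µL with purified RbFox RRM, wild type or mutant, across increasing protein concentrations. Free RNA was separated by 8% native PAGE, excised, reverse-transcribed, barcoded by PCR and sequenced. Relative association constants were obtained from read-count changes of each RNA species versus the control reaction and normalised to the cognate motif.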

Binder | binding signal
B1 | 0.0905 KA relative to UGCAUGU
B2 | 0.0687 KA relative to UGCAUGU
B3 | 0.0571 KA relative to UGCAUGU
B4 | 0.103 KA relative to UGCAUGU
B5 | 0.1 KA relative to UGCAUGU
B6 | 0.0953 KA relative to UGCAUGU
B7 | 0.0839 KA relative to UGCAUGU
B8 | 0.0744 KA relative to UGCAUGU
B9 | 0.225 KA relative to UGCAUGU
B10 | 0.0892 KA relative to UGCAUGU
B11 | 0.158 KA relative to UGCAUGU
B12 | 0.111 KA relative to UGCAUGU
B13 | 0.0856 KA relative to UGCAUGU
B14 | 0.0989 KA relative to UGCAUGU
B15 | 0.0964 KA relative to UGCAUGU
B16 | 0.0778 KA relative to UGCAUGU

Binder | binding signal
B17 | 0.0898 KA relative to UGCAUGU
B18 | 0.0603 KA relative to UGCAUGU
B19 | 0.104 KA relative to UGCAUGU
B20 | 0.107 KA relative to UGCAUGU
B21 | 0.112 KA relative to UGCAUGU
B22 | 0.0852 KA relative to UGCAUGU
B23 | 0.0679 KA relative to UGCAUGU
B24 | 0.298 KA relative to UGCAUGU
B25 | 0.208 KA relative to UGCAUGU
B26 | 0.112 KA relative to UGCAUGU
B27 | 0.092 KA relative to UGCAUGU
B28 | 0.0694 KA relative to UGCAUGU
B29 | 0.043 KA relative to UGCAUGU
B30 | 0.0885 KA relative to UGCAUGU
B31 | 0.0668 KA relative to UGCAUGU
